Measurements published in PubChem BioAssay AID504332 (National Center for Advancing Translational Sciences (NCATS), 2011).
Several values for one entry are separate records, joined by “and”; a condition that tells them apart may be missing. Equal entries are not always repeated. Hit rate of the full screen: of about 350,000 compounds, about 31,000 (8.9%) were called active. Inconclusive means that the source gave no clear call. Such entries were picked first, then a sample of the others. Calls follow the shape of the dose curve; as a rule, active = well fitted inhibition curve with a large enough effect; inconclusive = small, poorly fitted or top-dose-only effect; inactive = no such curve, though single readings can be large or run the other way. A potency beside an inconclusive call is a rough fit, not a confirmed value. The source holds several records for some structures; these can differ, active in one and inactive in another.

Target: Histone-lysine N-methyltransferase EHMT2 (Homo sapiens) (UniProt Q96KQ7)
Chain of UniProt Q96KQ7 (Q96KQ7 whole entry, looked up): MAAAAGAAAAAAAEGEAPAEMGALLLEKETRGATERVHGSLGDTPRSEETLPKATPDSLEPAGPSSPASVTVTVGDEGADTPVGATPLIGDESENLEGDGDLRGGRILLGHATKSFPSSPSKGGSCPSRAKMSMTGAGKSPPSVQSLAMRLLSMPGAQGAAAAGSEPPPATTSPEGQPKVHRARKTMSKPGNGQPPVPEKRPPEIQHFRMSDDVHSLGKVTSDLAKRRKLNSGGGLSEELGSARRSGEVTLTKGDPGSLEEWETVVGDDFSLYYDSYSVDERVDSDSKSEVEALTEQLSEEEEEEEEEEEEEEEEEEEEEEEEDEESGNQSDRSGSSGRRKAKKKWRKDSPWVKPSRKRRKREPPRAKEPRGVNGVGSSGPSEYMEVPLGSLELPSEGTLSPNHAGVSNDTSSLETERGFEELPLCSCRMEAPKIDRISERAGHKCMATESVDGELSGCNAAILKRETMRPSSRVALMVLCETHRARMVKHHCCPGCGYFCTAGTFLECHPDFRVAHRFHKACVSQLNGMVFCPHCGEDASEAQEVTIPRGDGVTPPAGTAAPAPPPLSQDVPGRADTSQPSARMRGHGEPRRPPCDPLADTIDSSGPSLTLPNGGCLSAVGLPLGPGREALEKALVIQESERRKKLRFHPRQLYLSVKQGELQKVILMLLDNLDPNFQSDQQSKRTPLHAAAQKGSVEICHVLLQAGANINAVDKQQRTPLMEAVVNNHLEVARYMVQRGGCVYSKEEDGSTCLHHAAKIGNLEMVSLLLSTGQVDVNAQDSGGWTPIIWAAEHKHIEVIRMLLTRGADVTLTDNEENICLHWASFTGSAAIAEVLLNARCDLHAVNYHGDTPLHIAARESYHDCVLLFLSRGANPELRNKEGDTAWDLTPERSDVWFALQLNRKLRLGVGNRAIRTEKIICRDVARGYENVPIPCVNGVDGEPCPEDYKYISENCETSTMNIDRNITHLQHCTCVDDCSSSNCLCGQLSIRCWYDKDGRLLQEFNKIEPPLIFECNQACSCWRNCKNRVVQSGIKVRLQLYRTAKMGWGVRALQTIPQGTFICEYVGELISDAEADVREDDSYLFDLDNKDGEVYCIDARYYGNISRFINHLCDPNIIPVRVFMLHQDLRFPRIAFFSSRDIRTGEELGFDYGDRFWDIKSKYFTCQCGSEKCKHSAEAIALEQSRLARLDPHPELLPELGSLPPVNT
Assay: qHTS Assay for Inhibitors of Histone Lysine Methyltransferase G9a; also: nearly all actives have a fitted effect of over 75% in size
Conditions: G9a H3K9 monomethylation, AlphaScreen, 2 h; activity, negative = inhibition: at 59 µM (top of the series) unless noted
Text: Methylated lysines, on the N-terminal tails of histone proteins serve as epigenetic markers to recruit factors that can then modify local chromatin structure to lead to functional consequences. G9a and other members of the SUV39 family of the SET domain-containing superfamily of histone lysine methyltransferases (HMT) have been identified to specifically methylate Lys9 of histone H3 (H3K9). G9a catalyzes the mono- and di-methylation of H3K9 in mammalian euchromatic regions, where the resulting H3K9me2 is indicative of transcriptional repression. […] The inhibition of G9a will result in transcriptional activation and work synergistically with DNA methyltransferase and histone deacetylase inhibitors, to kill cancer cells. This qHTS assay for identification of G9a inhibitors is a chemiluminescence based AlphaScreen (PerkinElmer). Methylation of biotinylated-histone peptide is measured through specific antibody-based detection, in conjunction with streptavidin-coated donor and anti-IgG antibody-coated acceptor beads. The method is particularly well suited for detection of inhibitors acting by the desired histone peptide competitive mechanism and is applicable to testing other HMTs. Although AlphaScreen has significant advantages with its utility in a variety of epigenetic target assays, the primary screening data provided in this deposition should be used with caution due to the prevalence of screening artifacts. An AlphaScreen counterscreen is highly recommended to be run against any putative actives to eliminate non specific artifacts. Alternatively, one can use other AlphaScreen assays in PubChem to filter out promiscuous hits. Quinn et al. A chemiluminescence-based method for identification of histone lysine methyltransferase inhibitors. Mol Biosyst 6(5): 782-8. 2010. PMID: 20567762 [2] Baell,Holloway. New substructure filters for removal of pan assay interference compounds (PAINS) from screening libraries and for their exclusion in bioassays. J Med Chem. 53(7):2719-40. 2010. PMID: 20131845 NIH Molecular Libraries Probe Production Network [MLPCN] NIH Chemical Genomics Center [NCGC] Structural Genomics Consortium (SGC) NIH Grant: 5U54 MH084681-02
To each well of a 1,536w plate, 2ul of HMT enzyme (final 20nM) were added, using a nanoliter dispenser. The G9a- and GLP-inhibitor BIX-01294 (CID: 25150857) are used as an intraplate control, with a 16-point titration in duplicate. A Kalypsys pin-tool transferred 23nl of library compound solution in DMSO to each well. Following a 15 min incubation of enzyme with compounds at room temperature, 1ul mixture of b-H3K9 peptide substrate (final 500nM) and SAM cofactor (final 20uM) were added. Reactions were allowed to proceed at room temperature for 2 hours. Methylated b-H3K9 peptide product was detected with 0.5 ug/mL rabbit polyclonal anti-monomethyl histone H3K9 antibody (Abcam Inc., Cambridge, MA) and 20 ug/mL each streptavidin-coated donor and anti-rabbit IgG acceptor AlphaScreen beads. Antibody and beads were added in a 1ul dispense, for a final volume of 4ul, and plates were incubated, protected from the light, for 10 min at room temperature. Microplates were then read on an EnVision multilabel plate reader using the 1,536 plate HTS AlphaScreen aperture (excitation time 80 ms, measurement time 240 ms).
% is scaled to controls: 0 for no effect and ±100 for the full control effect; potency is read from the fitted curve at half-maximal effect; tags tell the direction and shape of the fitted curve.

SMILES | Potency | activity, negative = inhibition
C=C1CC2C(CC[C@]3(C)C(=O)CCC23)[C@]2(C)C=CC(=O)C=C12 (stereo partly specified) | inactive | 
COc1ccc(C(=O)C2CCCN(Cc3ccon3)C2)c(OC)c1 (stereo unspecified) | inactive | 
COc1ccc(NC2CC(=O)N(C(C)C)C2=O)cc1 (stereo unspecified) | active: 22.4 µM | 
Cc1ccc(-n2nc(C)c3c2NC(=O)CSC3c2ccc(O)cc2)cc1Cl (stereo unspecified) | inactive | 
COc1c(/C=C2/C(=O)NC(=O)N(C)C2=O)c(CCN(C)C(=O)c2ccccc2)cc2c1OCO2 | inactive | 
O=C(CCCCCn1c(=S)[nH]c2ccccc2c1=O)N1CCC2(CC1)OCCO2 | active: 50.1 µM | 
COc1ccc(OC)c(CC(=O)O)c1 | inactive | 
Cc1cccn2c(=O)c(C=Nc3ccccc3)c(NCc3ccco3)nc12 | active: 50.1 µM | 
CN(C)P(=S)(Nc1ccccc1)C(Cl)(Cl)Cl (stereo unspecified) | inactive | 
Cc1ccc(C2=CCNCC2)cc1 | inconclusive: 17.8 µM [inhibitor, partial curve, poor fit] | 
CC12CN3CCN(C1)CC(C)(C3)C2=NN | inconclusive: 79.4 µM [inhibitor, partial curve, poor fit] | 
COc1ccc2[nH]cc(CCN=C(NC(=O)c3ccccc3OC)Nc3nc(C)cc(C)n3)c2c1 | inconclusive: 8.91 µM [inhibitor, partial curve, poor fit] | 
O=C1C=CC(=O)c2c(O)cccc21 |  | inconclusive: -133% [inhibitor] [at 2.33 µM]
COC[C@H]1OC(=O)c2coc3c2[C@@]1(C)C1=C(C3=O)[C@@H]2CCC(=O)[C@@]2(C)C[C@H]1OC(C)=O | active: 5.01 µM | 
CN(C(=O)Cc1ccc(Cl)c(Cl)c1)[C@H](CN1CCCC1)c1ccccc1 | inconclusive: 1.41 µM [inhibitor, full curve] | 
O=C(Cc1ccccc1[N+](=O)[O-])N1CCN(Cc2ccc3c(c2)OCO3)CC1 | inconclusive: 89.1 µM [inhibitor, partial curve, poor fit] | 
C=CCn1c(O)c(C(CC)=NC(C)c2ccccc2)c(=O)[nH]c1=O (stereo unspecified) | inactive | 
COc1ccc(CN2CCN(c3ccccc3F)CC2)cc1O | active: 10 µM | 
CNCCc1ccc(O)c(O)c1 | active: 44.7 µM and active: 31.6 µM | 
FC(F)(F)Oc1ccc(NC2=NCCCS2)cc1 | inactive | 
Oc1cc2c(cc1O)[C@H]1c3ccccc3CN[C@@H]1CC2 | active: 2.51 µM | 
CC1=NCCc2c1[nH]c1cc(O)ccc21 | active: 1.41 µM | 
COC(=O)N1CCC2(CCN(CC(C)C)CC2)CC1 |  | inactive: 9.44% [at 12.7 µM]
CN(C)CC#CCOCCOCCC#N | inactive | 
CN1CCC(N(C)c2nc(-c3ccc([N+](=O)[O-])cc3)nc3ccccc23)CC1 |  | inconclusive: -68.1% [inhibitor]

SMILES | Potency | activity, negative = inhibition
CCCCOc1ccc(CN2CCN(CC)CC2)cc1 | inconclusive: 100 µM [inhibitor, single point] | 
CSC[C@H](NC(=O)COc1cc2c(c3oc(=O)c(C)c(C)c13)CCC(C)(C)O2)C(=O)O | inconclusive: 89.1 µM [inhibitor, single point] | 
Cc1cccc2c1=NC(=O)/C(=C/c1c(O)[nH]c(=O)[nH]c1=O)C=2 | active: 10 µM | 
Clc1ccccc1C1NCc2ccccc2-n2cccc21 (stereo unspecified) | inconclusive: 31.6 µM [inhibitor, partial curve, poor fit] | 
C/C=C1/C[N@@+]2(C)CC[C@]34C(=C(C=O)[C@H]1C[C@H]32)Nc1ccccc14 | inconclusive: 11.2 µM [inhibitor, partial curve] | 
COc1cc(O)c(C(=O)O)c(-c2cc(O)c(O)cc2C)c1 | active: 0.355 µM | 
CN(N)N=Nc1nc2c([nH]1)c(=O)n(C)c(=O)n2C | active: 2.24 µM | 
Cc1cc(C(=O)CS(=O)(=O)c2ccc(F)cc2)cc(C)c1OC(=O)N(C)C | inactive | 
CN1c2ccc([N+](=O)[O-])cc2CC2(C(=O)NC(=O)N(c3ccc(Br)cc3)C2=O)C1c1ccccc1 (stereo unspecified) | inconclusive: 11.2 µM [inhibitor, partial curve, poor fit] | 
Cc1cc(/C=C2\C(=O)NC(=O)N(c3cccc(F)c3)C2=O)c(C)n1-c1ccc(C(=O)O)c(Cl)c1 | active: 35.5 µM | 
CCCC1(CCC)C(=O)NC(=NCc2ccccc2)NC1=O | active: 44.7 µM | 
CN1C(=O)C(=Cc2ccc(Sc3ccccc3)o2)C(=O)N(C)C1=O | active: 8.91 µM | 
CCCC12CN3CC(C)(CN(C1)C3c1ccccn1)C2=O (stereo unspecified) | inconclusive: 0.355 µM [inhibitor, full curve, poor fit] | 
O=C(c1ccc2c3c(cccc13)CC2)C1CCCN(Cc2ncc[nH]2)C1 (stereo unspecified) | inconclusive: 11.2 µM [inhibitor, full curve, poor fit] | 
O=C(CCn1c(=O)oc2ccccc21)N1CCN(C(c2ccccc2)c2ccccc2)CC1 | inconclusive: 31.6 µM [inhibitor, partial curve, poor fit] | 
CCC1(CC)C(=O)N(Cc2ccccc2)C(=O)N(Cc2ccccc2)C1=O | inactive | 
CN1C[C@H](C(=O)N[C@]2(C)O[C@@]3(O)C4CCCN4C(=O)[C@H](Cc4ccccc4)N3C2=O)C[C@@H]2c3cccc4[nH]cc(c34)C[C@H]21 (stereo partly specified) |  | inactive: 17.1% [at 12.7 µM]
COc1cc(Br)cc(CN2CCN(C)CC2)c1O | inconclusive: 3.98 µM [inhibitor, partial curve, poor fit] | 
CC[C@]12C=CCN3CCC4(c5cc(Br)c(OC)cc5N(C)C4[C@@](O)(C(=O)OC)[C@@H]1OC(C)=O)C32 (stereo partly specified) | active: 35.5 µM | 
CN1CC(C(=O)c2cccc(C(F)(F)F)c2)C(c2ccc(Cl)cc2)C1 (stereo unspecified) | inconclusive: 39.8 µM [inhibitor, partial curve, poor fit] | 
CCCCCCN1CCN(c2ccccc2Cl)CC1 | inactive | 
O=C(COc1ccc2ccccc2c1)N1CCN(Cc2c[nH]c3ccccc23)CC1 |  | inconclusive: -140% [inhibitor]
CCN1C[C@]2(COC)C(O)C[C@H](OC)[C@@]34C5C[C@]6(O)C(OC)C(O)[C@](OC(C)=O)(C5C6OC(=O)c5ccccc5)C(C(OC)C23)C14 (stereo partly specified) |  | inactive: -10.7% [at 2.33 µM]
CCC(C)n1c(O)c(/C=N/Nc2nc3c(c(=O)n(C)c(=O)n3C)n2C)c(=O)[nH]c1=S (stereo unspecified) | active: 25.1 µM | 
O=C(O)CCCC[C@H]1SC[C@H]2NC(=O)N[C@@H]21 | active: 0.398 µM | 

SMILES | Potency | activity, negative = inhibition
CCCNC(=O)N1[C@H]2CC[C@@H]1C(C(=O)OC)=C(c1cccc(Cl)c1)C2 |  | inactive: 4.53% [at 0.501 µM]
O=C(c1ccccc1F)N1CCC2(CC1)OCCO2 |  | inactive: 8.86% [at 2.33 µM]
Cc1ccc(-n2nc(C)c(C3C(C#N)=C(N)Oc4c3c(=O)oc3ccccc43)c2Cl)cc1 (stereo unspecified) | inactive | 
O=c1[nH]c(=S)n(Cc2ccc(F)cc2)c(O)c1/C=N/N1CCCCC1 | inconclusive: 22.4 µM [inhibitor, single point] | 
CN1CCN(C(=S)SCC(=O)Nc2ccc(Cl)cc2C(=O)c2ccccc2)CC1 | inconclusive: 25.1 µM [inhibitor, partial curve, poor fit] | 
O=C(C1CCN(CC2CCCCC2)CC1)N1CCCC1 | active: 8.91 µM | 
O=C1CC(=O)N(c2ccccc2F)C(=O)N1 | inconclusive: 70.8 µM [inhibitor, single point] | 
C/C(=N\NP(=S)(c1ccccc1)c1ccccc1)c1ccc(O)cc1O |  | inactive: -38.1% [at 12.7 µM]
C=CCn1c(-c2ccc([N+](=O)[O-])cc2)n[nH]c1=S | active: 5.62 µM | 
CN(N=O)c1ccc(O)c(O)c1 | active: 3.55 µM and active: 501 nM | 
CC(=NCCN1CCOCC1)c1c(O)n(C2CCCCC2)c(=O)[nH]c1=O | inconclusive: 25.1 µM [inhibitor, single point] | 
CCCn1cc2c3c(cccc31)C1CC(C)CN(C)C1C2 (stereo unspecified) | inconclusive: 89.1 µM [inhibitor, single point] | 
Clc1ccc2c(c1)C(OC1CN3CCC1CC3)c1ccccc1CS2 (stereo unspecified) | inconclusive: 39.8 µM [inhibitor, single point] | 
Nc1ncnc2c1ncn2[C@@H]1O[C@H](COP(=O)(O)CP(=O)(O)O)[C@@H](O)[C@H]1O | inactive | 
C=Cn1ccnc1P(=S)(c1ccc(N(C)C)cc1)c1nccn1C=C | inactive | 
Cn1cccc1/C=C1/C(=O)NC(=O)N(Cc2ccccc2)C1=O | inconclusive: 31.6 µM [inhibitor, single point] | 
N#CC(=Cc1ccc(O)c(O)c1)C(N)=S | active: 5.01 µM | 
C1CCc2nnnn2CC1 |  | inactive: 32% [at 12.7 µM]
CCc1cc2c(N3CCN(C)CC3)ncnc2s1 | inconclusive: 39.8 µM [inhibitor, single point] | 
CC(Cc1ccccc1)NC(N)=O (stereo unspecified) | inconclusive: 44.7 µM [inhibitor, partial curve, poor fit] | 
O=C(O)c1ccccc1S | active: 39.8 µM | 
COc1cc2c(cc1O)[C@@H]1Cc3ccc(OC)c(O)c3CN1CC2 | inconclusive: 14.1 µM [inhibitor, partial curve] | 
Cn1cnc(CCN)c1 | active: 7.94 µM | inactive: 20.5% [at 12.7 µM]
COc1cc2c3cc1Oc1cc(ccc1O)C[C@@H]1c4c(cc(OC)c(O)c4Oc4cccc(c4)C[C@@H]3N(C)CC2)CC[N+]1(C)C | inconclusive: 25.1 µM [inhibitor, partial curve, poor fit] | 
C=CCN1CC[C@]23c4c5ccc(O)c4OC2C(=O)CC[C@]3(O)C1C5 (stereo partly specified) |  | inactive: -36.3% [at 2.33 µM]
